Measured values taken from paper PMC6418106.
Where a chain is given by its changes, count along the chain named. These are yes or no findings as the source states them, for the method shown. In cells and extracts the contact can be indirect. Some results given as binding are weak or reduced against the parent protein; the word gives no strength. Sequences can lack the tags named with a protein.

By UniProt entry, the sequences of proteins in these tests, tags left out. Where a name states a change or a piece, a line headed by the entry shows the natural chain unless it says otherwise.
UniProt P36000: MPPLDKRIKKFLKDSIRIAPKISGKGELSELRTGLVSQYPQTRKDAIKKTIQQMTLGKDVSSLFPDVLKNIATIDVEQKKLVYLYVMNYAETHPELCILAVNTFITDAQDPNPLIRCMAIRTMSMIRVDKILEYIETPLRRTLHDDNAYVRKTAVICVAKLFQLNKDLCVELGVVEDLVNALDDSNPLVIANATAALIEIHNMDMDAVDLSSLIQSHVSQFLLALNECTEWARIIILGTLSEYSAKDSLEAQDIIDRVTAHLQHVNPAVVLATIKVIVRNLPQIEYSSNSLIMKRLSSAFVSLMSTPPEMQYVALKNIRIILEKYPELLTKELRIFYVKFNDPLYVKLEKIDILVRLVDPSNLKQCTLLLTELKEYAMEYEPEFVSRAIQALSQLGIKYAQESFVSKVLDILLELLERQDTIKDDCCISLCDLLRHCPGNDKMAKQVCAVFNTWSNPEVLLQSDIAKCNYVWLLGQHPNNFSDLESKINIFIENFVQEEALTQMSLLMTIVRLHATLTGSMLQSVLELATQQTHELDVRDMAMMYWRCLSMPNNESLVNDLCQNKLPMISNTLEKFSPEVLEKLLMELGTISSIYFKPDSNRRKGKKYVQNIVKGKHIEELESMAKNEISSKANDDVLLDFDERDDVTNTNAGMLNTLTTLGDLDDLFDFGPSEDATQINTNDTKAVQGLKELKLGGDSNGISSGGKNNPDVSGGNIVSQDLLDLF
UniProt P27351: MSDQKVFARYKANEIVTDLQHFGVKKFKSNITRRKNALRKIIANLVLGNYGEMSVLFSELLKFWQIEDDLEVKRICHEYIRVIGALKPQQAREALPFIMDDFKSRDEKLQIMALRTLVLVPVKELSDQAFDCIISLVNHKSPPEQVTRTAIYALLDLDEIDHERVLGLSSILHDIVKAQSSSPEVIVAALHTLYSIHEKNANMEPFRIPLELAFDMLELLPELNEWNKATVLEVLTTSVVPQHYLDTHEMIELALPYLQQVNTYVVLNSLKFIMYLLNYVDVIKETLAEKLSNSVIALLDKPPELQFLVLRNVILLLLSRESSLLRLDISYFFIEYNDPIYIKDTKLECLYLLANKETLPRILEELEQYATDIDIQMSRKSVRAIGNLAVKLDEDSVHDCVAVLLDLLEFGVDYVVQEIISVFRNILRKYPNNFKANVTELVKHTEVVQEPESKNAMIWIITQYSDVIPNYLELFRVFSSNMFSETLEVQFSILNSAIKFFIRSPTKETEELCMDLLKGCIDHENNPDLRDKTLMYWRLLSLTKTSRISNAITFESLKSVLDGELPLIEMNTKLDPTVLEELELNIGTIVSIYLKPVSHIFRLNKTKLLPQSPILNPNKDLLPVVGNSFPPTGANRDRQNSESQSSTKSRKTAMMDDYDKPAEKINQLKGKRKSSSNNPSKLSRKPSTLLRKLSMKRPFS

How the values were obtained:
Test in all cases: co-IP; 3xFLAG-Irc6 WT or mutants precipitated from yeast spheroplast lysates with ANTI-FLAG M2 magnetic beads (2 h, 4 °C; 20 mM HEPES pH 7.0, 125 mM KAc, 0.4 M sorbitol, 0.1% Triton X-100, 2 mM MgCl2, 0.5 mM EGTA), eluted with 3xFLAG peptide; blots with antibodies to β1 (AP-1), β2 (AP-2) and FLAG
[1] = target: T1, 3xFLAG-Irc6 YY-AA mutant (BC-YY motif tyrosines 49 and 50 to alanine) (S. cerevisiae) (UniProt P43615)
T1 sequence: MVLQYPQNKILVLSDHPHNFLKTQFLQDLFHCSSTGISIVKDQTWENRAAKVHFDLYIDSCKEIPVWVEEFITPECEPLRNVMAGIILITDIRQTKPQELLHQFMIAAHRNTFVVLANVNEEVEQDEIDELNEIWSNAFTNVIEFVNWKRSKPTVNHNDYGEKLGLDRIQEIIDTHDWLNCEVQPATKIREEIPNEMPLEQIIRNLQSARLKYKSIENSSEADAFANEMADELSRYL

[2] = target: T2, 3xFLAG-Irc6 wild type (aa1-237) (S. cerevisiae) (UniProt P43615)
T2 sequence: T1 sequence with A49Y, A50Y

[3] = target: T3, 3xFLAG-Irc6 Y236* (mutant #42, lacks the terminal two residues) (S. cerevisiae) (UniProt P43615)
T3 sequence: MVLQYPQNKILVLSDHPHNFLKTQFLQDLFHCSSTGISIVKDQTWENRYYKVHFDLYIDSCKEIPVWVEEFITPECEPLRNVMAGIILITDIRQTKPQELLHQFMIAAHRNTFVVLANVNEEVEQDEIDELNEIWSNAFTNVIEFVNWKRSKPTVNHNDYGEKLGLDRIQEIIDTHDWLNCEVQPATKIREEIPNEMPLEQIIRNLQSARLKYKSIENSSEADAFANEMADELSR

Substance | binding [1] | binding [2] | binding [3]
clathrin adaptor complex AP-1 (from UniProt P36000 1-726; Q12028 1-832; Q00776 1-475; P35181 1-156) | binds | binds | no binding
clathrin adaptor complex AP-2 (from UniProt P27351 1-700; P38065 1-1025; Q99186 1-491; Q00381 1-147) | binds | binds | no binding
